Source: the supplement of paper PMC9513381

B1: B2066 (protein)
chain 1: EVQLVESGGGLVQPGGSLRLSCAASGFTFSTYDMHWVRQATGKGLEWVSTIGTSGDTYYLDSVKGRFTISRENAKNSLYLQMNSLRAEDTAVYYCARGHATSMVTVFDFWGQGSLVTVSS
chain 2: DIQMTQSPSSLSASVGDRVTITCRASQSISTYLNWYQQKPGKAPKLLIYAASSLHSGVPSRFSGRGSGRDFTLTISSLQPEDFATYFCQQSYINPHVTFGGGTKVEIK
B2: B2112 (protein)
chain 1: EVQLVQSGAEVKKPGESLKISCKGSGYSFISYWIGWVRQMPGKGLEWMGIIHPQESETRGSQSFQGQVTISADKSIITAYLQWSSLKASDTAMYYCVRYSSSPSGWFDPWGQGTLVTVSS
chain 2: QSVLTQPPSASGTPGQRVTISCSGSSSNIGGNAVSWYQQLPRTAPKLLIYNNNQRPSGVPDRFSGSKSGTSASLAISGLQSEDEADYYCAAWDDSLNGVVFGGGTKLTVL
B3: B2006 (protein)
chain 1: EVQLVQSGAEVKKPGESLKISCKGFGSSFTNYWIGWVRQMPGKGLEWMGSVYAGDSDTRYSPSFQGQVTVSADKSITTAYLQWTSLKASDTAMYFCARASQGNYFDFWGQGTLVTVSS
chain 2: DIQMTQSPSTLSASVGDRVTITCRASQSISRWLAWYQQKPGKAPKLLIYDASILESGVPSRFSGSGSGTDFTLTISSLQPDDYATYYCQQFYSNLYTFGQGTKLEIK
B4: B2113 (protein)
chain 1: QVQLVQSGAEVKKPGASVKVSCKASGYTFSSYGISWVRQAPGQGLEWMGWISGYSGNTKYAQKLQGRVTMTTDTSTSTAYMELRSLRSDDTAVYYCARNSGSYYLGVEYWGQGALVTVSS
chain 2: NFMLTQPHSVSESPGKTVTISCTGSSGSIASNYVQWYQQRPGSAPTTVIYEDNQRPSGVPDRFSGSIDSSSNSASLTISGLKTEDEADYYCQSSDSGNWVFGGGTKLTVL
B5: B2116 (protein)
chain 1: QVQLVQSGAEVKKPGSSVKVSCKASGGTFSNYGISWVRQAPGQGLEWIGGIVPIFVSAKYAQKFQGRVTITADRLTTTAYMELSSLRSDDTAVYYCARATDETILHKIDCGGDCHFYYAMDVWGQGTTVTVSS
chain 2: EIVLTQSPGTLSLSPGERATLSCRASQSVSHTYLAWYQQKPGQAPGLLIYGASSRATGIPDRFSGSGSGADFTLTISRLEPEDFAVYYCQLYGSSPVTFGQGTKVEIK
B6: B2117 (protein)
chain 1: QVQLVQSGADVRQPGASVKVSCKASGYIFPNYGISWVRQAPGQGLEWMGWISAHDDQTNYAQRLQGRITMTTDPSTSTAYMELRGLRSDDTAMYYCAREGAGAFFAWSSTWHGERAAFDIWGQGTMVTVSS
chain 2: EIVLTQSPGTLSLSPGERAALSCRASQSVTRSYLAWYQQKPGQAPRLLIFDASSRATGIPDRFSGSASGTDFTLTISRLEPEDFAVYYCQLYGTSSTFGQGTKVEIK
B7: B2119 (protein)
chain 1: VQLVESGGGVVQPGRSLRLSCAASGFTFRNYGMHWVRQAPGKGLEWVAMISYDGDNKYYVDSAKGRFTISRDNSKNTLYLQMSSLRADDTAVYYCAKGVGPYCSGGSCYPGALDYWGQGTLVTVSS
chain 2: IRMTQSPSSLSASVGDRVTITCQASQDIRNYVNWYQQHPGKAPKLLIYDASNLEAGVPSRFSGSGSGTDFTFTISGLQPEDFATYYCQQYDNYPPFTFGGGTKVEIK

What follows are binders tested against SARS-CoV-2 Wuhan-Hu-1 spike pseudovirus (assay: pseudovirus neutralization IC50; higher = weaker neutralization).
Procedure: (§1)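 Single-round luciferase reporter pseudovirus mixed with antibody dilutions and put on 293T-ACE2 cells for 48 h; signal relative to no-antibody wells, four-parameter fit.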
With B1 the “pseudovirus neutralization IC50” value was greater than 1 µg/mL.
For B2, the “pseudovirus neutralization IC50” value was greater than 1 µg/mL.
In the case of B3, the “pseudovirus neutralization IC50” value is reported as greater than 1 µg/mL.
B4 was tested, and the “pseudovirus neutralization IC50” value was 0.6 µg/mL.
For B5, the “pseudovirus neutralization IC50” value was 0.00263 µg/mL.
With B6 the “pseudovirus neutralization IC50” value was 0.0115 µg/mL.
For B7, the “pseudovirus neutralization IC50” value was greater than 1 µg/mL.

Each binder was assayed against SARS-CoV-2 Wuhan-Hu-1 spike pseudovirus (assay: pseudovirus neutralization IC90; higher = weaker neutralization).
Procedure: as §1
With B1 the “pseudovirus neutralization IC90” value was greater than 1 µg/mL.
B2 was tested, and the “pseudovirus neutralization IC90” value was greater than 1 µg/mL.
In the case of B3, the “pseudovirus neutralization IC90” value is reported as greater than 1 µg/mL.
For B4, the “pseudovirus neutralization IC90” value was greater than 1 µg/mL.
B5 was tested, and the “pseudovirus neutralization IC90” value was 0.0191 µg/mL.
For B6, the “pseudovirus neutralization IC90” value was 0.0528 µg/mL.
With B7 the “pseudovirus neutralization IC90” value was greater than 1 µg/mL.

These binders were tested against SARS-CoV-2 Delta (B.1.617.2) spike RBD (assay: ELISA binding EC50; higher = weaker binding; ELISA of recombinant human antibody on coated antigen, from 10 µg/ml in fourfold dilutions; four-parameter fit.).
With B1 the “ELISA binding EC50” value was 0.0145 µg/mL.
In the case of B2, the “ELISA binding EC50” value is reported as greater than 1 µg/mL.
B3 was tested, and the “ELISA binding EC50” value was 0.00574 µg/mL.
B4 was tested, and the “ELISA binding EC50” value was 0.17 µg/mL.
For B5, the “ELISA binding EC50” value was greater than 1 µg/mL.
With B6 the “ELISA binding EC50” value was 0.00755 µg/mL.
With B7 the “ELISA binding EC50” value was 0.0422 µg/mL.

What follows are binders tested against SARS-CoV-2 Omicron BA.1 spike protein in the same assay as above.
In the case of B1, the “ELISA binding EC50” value is reported as 0.0133 µg/mL.
For B2, the “ELISA binding EC50” value was 0.774 µg/mL.
For B3, the “ELISA binding EC50” value was 0.00908 µg/mL.
With B4 the “ELISA binding EC50” value was 0.362 µg/mL.
For B5, the “ELISA binding EC50” value was greater than 1 µg/mL.
With B6 the “ELISA binding EC50” value was 0.0607 µg/mL.
With B7 the “ELISA binding EC50” value was 0.0514 µg/mL.

What follows are binders tested against SARS-CoV-2 Wuhan-Hu-1 spike receptor-binding domain in the same assay as above.
For B1, the “ELISA binding EC50” value was 0.00772 µg/mL.
B2 was tested, and the “ELISA binding EC50” value was 0.0115 µg/mL.
B3 was tested, and the “ELISA binding EC50” value was 0.00222 µg/mL.
With B4 the “ELISA binding EC50” value was 0.00733 µg/mL.
In the case of B5, the “ELISA binding EC50” value is reported as 0.00245 µg/mL.
With B6 the “ELISA binding EC50” value was 0.00399 µg/mL.
With B7 the “ELISA binding EC50” value was 0.00176 µg/mL.

Recombinant human monoclonal antibodies (heavy:light variable regions). ELISA EC50 on the named antigen, from 10 µg/ml down; IC50 / IC90 against spike pseudovirus on 293T-ACE2 cells, 48 h; lower = stronger. Calls: IC50 above 1,000 ng/ml = non-neutralizing; EC50 above 1,000 ng/ml = non-binder. The source prints 1000 for neutralization that was not reached; it is given as >1000 ng/ml. Only binders of the Wuhan-Hu-1 domain have neutralization values.
